Laboratory results reported in PubChem BioAssay AID1508642 (National Center for Advancing Translational Sciences (NCATS), 2021).
Screen size: about 43,000 compounds; about 200 (0.47%) were called active. Roughly 12% stayed inconclusive and do not appear here. Calls come from the whole dose curve; as a rule, active = well fitted cell-killing curve with a large enough effect; inconclusive = small, poorly fitted or top-dose-only effect, or effect the other way; inactive = flat fitted curve, though single readings scatter. The list shows a part of the results.

Experiment: Cell viability qHTS assay in S16 Pmp22-F2sN cells; note: nearly all actives have a fitted effect of over 65% in size
Conditions: S16 Pmp22-F2sN Schwann cells (luciferase reporters placed in the Pmp22 gene) viability, CellTiter-Glo, 24 h; series mostly up to 57.5 µM; activity change, negative = cytotoxicity: at the top concentration
Procedure, shortened: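 CellTiter-Glo counter-screen, qHTS, 1536-well. Cells: S16(c9) Pmp22-F2sN, 500-1,000/well in DMEM + 10% FBS. Cpd 23 nL pin transfer, 24 h, 37C/5% CO2. Read: luminescence, CCD imager.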
% is set by controls: 0 for no effect and ±100 for the full control effect.

| SMILES | activity change, negative = cytotoxicity |
| --- | --- |
| Cc1ccc(-c2nn(-c3cccc([N+](=O)[O-])c3)c3c2cnc2ccc(F)cc23)cc1 | inactive: 2.7% |
| Cc1cccc(Nc2nc(Nc3cccc(C)c3)nc(N3CCOCC3)n2)c1 | inactive: -22.7% |
| Cc1cc2c(n1-c1ccc(C(=O)NCC(C)c3ccccc3)cc1)CCCC2 (stereo not given) | inactive: -5.06% |
| CCOc1ccc(CNC(=O)c2ccc3c(c2)sc2nc(-c4ccc(OC)cc4)cn23)cc1 | inactive: 20% |
| COc1cc(OC)c(NC(=O)CSC2=Nc3ccccc3N=C(c3ccc(F)cc3)C2)cc1Cl | inactive: 14.5% |
| CCOC(=O)c1ccccc1NC(=O)Cc1c(C(=O)O)c(C)cn1C | inactive: -6.78% |
| Cc1cccc(CS(=O)(=O)CC2Nc3ccc(C(=O)NCc4ccccc4)cc3NC2=O)c1 (stereo not given) | inactive: 3.32% |
| Cc1ccc(-n2ncc(C(=O)N3CCN(c4ccccn4)CC3)c2C2CCN(C(=O)OC(C)(C)C)CC2)cc1C | inactive: -0.656% |
| CCOC(=O)c1ccc(N2C(=O)c3n[nH]c(C)c3C2c2ccc(O)c(OC)c2)cc1 (stereo not given) | inactive: -10.1% |
| COc1ccc(N2CCN(C(=O)Cn3cnc4sc(C)c(S(=O)(=O)N5CCC(C)CC5)c4c3=O)CC2)cc1 | inactive: -4.27% |
| COc1ccc(NC(=O)Cn2cnc3c(nc4n3CCCCC4)c2=O)c(OC)c1 | inactive: 0.813% |
| COCCCn1c(=N)c(C(=O)NC2CCCCC2)cc2c(=O)n3ccccc3nc21 | inactive: 1.64% |
| COc1ccc(C(=O)Nc2onc3c2CCCC3)cc1 | inactive: 6.92% |
| Cc1c(CNC2CCCCCC2)c(C(=O)O)c(C)n1Cc1c(F)cccc1Cl | inactive: 5.29% |
| COc1ccc(-c2cn3nc(N4CCCC(C(=O)Nc5ccc(Cl)cc5C)C4)sc3n2)cc1 (stereo not given) | inactive: 9.58% |
| CC1Cc2ccccc2N1S(=O)(=O)c1nnc(NC(=O)c2ccccc2Br)s1 (stereo not given) | inactive: 1.06% |
| CC(C)Oc1ccc(C(=O)Nc2ccc3oc(-c4ccncc4)nc3c2)cc1 | inactive: 12% |
| Cc1[nH]c2ccc(F)cc2c1CCNC(=O)c1cc2cc(Cl)ccc2oc1=O | inactive: 6.84% |
| O=c1n(Cc2ccc(F)cc2Cl)c2ccccc2c2nc(-c3ccccc3)nn12 | inactive: -0.146% |
| Cn1c(=O)c2c(nc(NCCc3ccccc3)n2Cc2cccc(Br)c2)n(C)c1=O | inactive: -2.12% |
| Cc1ccc(CCNC(=O)c2nnc(Cc3cccc(F)c3)o2)cc1 | inactive: -0.301% |
| COc1ccc(Cl)cc1NS(=O)(=O)c1c(C)nc2scc(C)n2c1=O | inactive: 1.88% |
| Cc1ccc(CNC(=O)c2c[nH]c3ccc(S(=O)(=O)Nc4ccc(C(C)C)cc4)cc3c2=O)cc1 | inactive: -6.04% |
| COc1cc(NC(=O)C(NC(=O)C2CCC(C)CC2)C(C)C)cc(OC)c1OC (stereo not given) | inactive: 8.97% |

| SMILES | activity change, negative = cytotoxicity |
| --- | --- |
| COc1cccc(CSc2nc3cc(OC)c(OC)cc3c3nc(CCn4nc(C)cc4C)nn23)c1 | inactive: 6.06% |
| CCOc1ccc2nc(N(Cc3cccnc3)C(=O)c3ccc4c(c3)OCCO4)sc2c1 | inactive: 17.3% |
| O=C(NC1(C(F)(F)F)NC(=O)N(CCc2ccccc2)C1=O)c1ccccc1F (stereo not given) | inactive: 7.86% |
| CCN(Cc1ccccc1)C(=O)Nc1ccc2c(c1)N(C)C(=O)c1ccccc1S2 | inactive: -28.4% |
| COc1ccc(C)cc1NC(=O)CN1C(=O)CCc2cc(S(=O)(=O)N3CCOCC3)ccc21 | inactive: 16.3% |
| Cc1ccc(C(c2sc3nc(-c4ccco4)nn3c2O)N2CCCCC2)cc1 (stereo not given) | inactive: 3.58% |
| CC(=O)c1ccc(NC(=O)CSc2nc(-c3ccccc3F)nc3c2c(=O)n(C)c(=O)n3C)cc1 | inactive: 3.18% |
| C=Cc1ccc(Cn2c(=O)n(-c3ccccc3C)c(=O)c3c4c(sc32)CN(C(C)=O)CC4)cc1 | inactive: 0.111% |
| CCc1nn(CC(=O)Nc2c(C)cc(C)cc2C)c(=O)c2cc3sccc3n12 | inactive: 2.35% |
| Cc1ccc(N(C)S(=O)(=O)c2ccc3[nH]cc(C(=O)O)c(=O)c3c2)cc1C | inactive: 3.1% |
| Cc1ccc(NC(=O)C2CCN(c3nc4ccccc4[nH]3)CC2)cc1Cl | inactive: -11.6% |
| CC1Cc2cc(S(=O)(=O)NCc3ccc(F)cc3)ccc2N1C(=O)C1CCC1 (stereo not given) | inactive: -3.03% |
| CCOC(=O)c1c(-c2ccc(C)cc2)csc1NC(=O)c1cc(=O)c2cc(C)c(C)cc2o1 | inactive: -1.42% |
| O=C(Cn1cc(SCc2cccc(C(F)(F)F)c2)c2ccccc21)N1CCCCCC1 | inactive: -19% |
| COc1cccc2cc(-c3nc(-c4cccs4)no3)c(=O)oc12 | inactive: 4.37% |
| CN1C(=O)C2CCCCN2c2ccc(C(=O)NCc3ccccc3Br)cc21 (stereo not given) | inactive: 6.64% |
| COc1cc(NC(=O)CCc2c(C)nc3c(c(C)nn3-c3ccccc3)c2C)cc(OC)c1OC | inactive: 5.68% |
| COc1ccccc1CNC(=O)Nc1ccc2c(c1)N(C)C(=O)c1ccccc1S2 | inactive: -11.1% |
| O=C(CSc1nc2c([nH]c3ccccc32)c(=O)n1-c1ccc(F)cc1)N1CCCCCC1 | inactive: 10.4% |
| COc1ccc(Br)cc1CNC(=O)CCC(=O)N1CCSc2ccccc21 | inactive: -4.96% |
| Clc1cccc(-c2noc3ncnc(NC4CCCCC4)c23)c1 | inactive: -18.7% |
| O=C(Nc1ccc(Br)cc1)c1ccc(Br)c(S(=O)(=O)NCc2ccccc2)c1 | inactive: -5.74% |
| CCOc1ccc(CNC(=O)Cn2nc(C)c3sc4ccccc4c3c2=O)cc1 | inactive: -4.69% |
| CCOC(=O)c1c(C)c(C(=O)NCCc2ccc(OC)cc2)c(C)n1CC | inactive: -0.0754% |

| SMILES | activity change, negative = cytotoxicity |
| --- | --- |
| CC(=O)c1c(C)n(-c2cccc(C)c2)c2ccc(OC(=O)COc3ccccc3)cc12 | inactive: -14.1% |
| COc1cccc(-c2cc(C(=O)NCCc3ccc(C)cc3)[nH]n2)c1 | inactive: 3.32% |
| COc1ccc(-c2c(C)c3ccc(O)c(CN4CCN(C)CC4)c3oc2=O)cc1OC | inactive: 4.21% |
| COc1ccc2c(c1)c1c(c(=O)n(-c3cccc(Cl)c3)c(=O)n1C)n2C | inactive: -6.3% |
| Cc1cccc2sc(N(Cc3cccnc3)C(=O)C3CCCCC3)nc12 | inactive: -16.1% |
| COc1ccc(S(=O)(=O)c2cn(CC(=O)Nc3ccccc3)c3ccc(Cl)cc3c2=O)cc1 | inactive: 8.96% |
| Cc1ccc(NC(=O)Cn2c(=O)n(Cc3ccc4c(c3)OCO4)c(=O)c3ccc(C(=O)NC4CCCCC4)cc32)cc1 | inactive: 0.615% |
| CCOC(=O)c1ccc(NC(=O)Cc2coc3cc(C)cc(C)c23)cc1 | inactive: -0.32% |
| O=C(Nc1cc(-c2nc3ccccc3o2)ccc1Cl)c1cccc2c(Cl)cccc12 | inactive: 2.61% |
| Cc1cccc(NC(=O)CSc2nc(=O)n(CCN3CCOCC3)c3c2CCC3)c1C | inactive: 13.5% |
| CCCC(=O)NCc1nc2cccnc2n1Cc1ccc(F)cc1 | inactive: 2.28% |
| Cc1cccc(Cn2nnc3c(=O)[nH]c(C4CCN(C(=O)c5ccccc5F)CC4)nc32)c1 | inactive: 13.4% |
| Cc1cc([N+](=O)[O-])ccc1NC(=O)CSc1nccn1C | inactive: 2.35% |
| COc1ccc(CNC(=O)c2cnc(N3CCCC3)nc2C)cc1 | inactive: 5.91% |
| O=C(CSc1cn(CC(=O)N2CCOCC2)c2ccccc12)Nc1ccccc1C(F)(F)F | inactive: 2.79% |
| CCCCc1nn2c(=O)cc(COC(=O)c3ccccc3NC(=O)C3CCCCC3)nc2s1 | inactive: -2.48% |
| COc1ccc(S(=O)(=O)NCc2cccn2Cc2cccc(C)c2)cc1OC | inactive: -26.6% |
| CCN(C(=O)CSc1nnc(C)n2c1cc1occc12)c1ccccc1 | inactive: -16.4% |
| CCOc1ccc(NC(=O)c2cc3c(=O)n4cccc(C)c4nc3s2)cc1 | inactive: 1.76% |
| CCOC(=O)CC(NC(=O)c1cc2c(=O)n3cccc(C)c3nc2s1)c1ccc(OCC)c(OC)c1 (stereo not given) | inactive: 0.341% |
| CC(C)OCCCNC(=O)Cc1ccc(NC(=O)N2CCCCc3ccccc32)cc1 | inactive: -26.9% |
| CCc1ccccc1NC(=O)Cn1c(=O)n(-c2cccc(C)c2)c(=O)c2c1c1cc(OC)ccc1n2C | inactive: 1.89% |
| CCOc1ccccc1N(C)C(=O)c1cc2c(s1)-c1ccccc1OC2 | inactive: 0.542% |
| CCc1cccc(NC(=O)Nc2cn(C)c(=O)c3ccccc23)c1 | inactive: 17.5% |

| SMILES | activity change, negative = cytotoxicity |
| --- | --- |
| Cc1ccc(C(=O)COC(=O)c2cc(-c3cccs3)nc3ccccc23)cc1 | inactive: -2.58% |
| COc1cccc(NC(=O)C2CCN(S(=O)(=O)c3c(C)noc3C)CC2)c1 | inactive: 5% |
| COc1ccc(-c2noc(CCC(=O)Nc3cccc(C)c3C)n2)cc1OC | inactive: 4.09% |
| Cc1ccc(S(=O)(=O)c2cn(CC(=O)Nc3ccc(F)cc3)c3cc4c(cc3c2=O)OCO4)cc1 | inactive: -1.51% |
| Cc1ccc(NC(=O)Cn2c(=O)n(CC(=O)NCCc3ccccc3)c(=O)c3ccccc32)cc1C | inactive: -12.3% |
| CCCCc1nc(SCC(=O)Nc2ccc(S(N)(=O)=O)cc2)n[nH]1 | inactive: 12% |
| COc1ccc(C)cc1NC(=O)C(=O)NCC(c1cccnc1)N1CCN(c2ccccc2F)CC1 (stereo not given) | inactive: -16.7% |
| O=C(Cn1c(=O)n(-c2ccc(Cl)cc2)c(=O)c2c3c(sc21)CCCCC3)Nc1cccc(Cl)c1 | inactive: -0.108% |
| O=C(NCc1cccc(Cl)c1)c1cc2c(s1)-c1ccccc1SC2 | inactive: -7.96% |
| Cc1ccc2cccc(NC(=O)c3cccc4c(Br)cccc34)c2n1 | inactive: -0.276% |
| CCn1c(=O)n(-c2ccc3c(c2)OCO3)c2nc(-c3cccc(OC)c3OC)nc(C(N)=O)c21 | inactive: -0.244% |
| CCCn1cc(S(=O)(=O)c2ccc(C)c(C)c2)c(=O)c2cc(F)c(N3CCC(C)CC3)cc21 | inactive: 7.16% |
| COc1ccc(N2CCN(C(=O)c3ccc4c(c3)N(Cc3cccc(Cl)c3)C(=O)c3ccccc3S4(=O)=O)CC2)cc1 | inactive: -2.52% |
| COc1cccc(CNC(=O)c2c(C)oc3ncnc(N4CCOCC4)c23)c1 | inactive: -6.58% |
| COc1ccc(N2CCN(C(=O)C3Cc4ccccc4N3C(C)=O)CC2)cc1 (stereo not given) | inactive: -23.7% |
| Cc1cc(C)cc(N2CCn3c2nc2c3c(=O)n(C/C=C/c3ccccc3)c(=O)n2C)c1 | inactive: 3.27% |
| COc1cccc(CC(=O)Nc2ccc(-c3nc4ccccc4s3)cc2Cl)c1 | inactive: -16.2% |
| CCOc1cc(CNC(=O)C2CCN(c3nc4ccccc4[nH]3)CC2)cc(OCC)c1OCC | inactive: 11% |
| Cc1ccc2nc(-c3ccc(F)cc3)c(NC(C)(C)CC(C)(C)C)n2c1 | inactive: -4.95% |
| Cc1c(Cl)cccc1NC(=O)CSc1ccc(-c2ccccn2)nn1 | inactive: -0.723% |
| Cc1ccc(C)c(NC(=O)CCOc2ccccc2)c1 | inactive: -3.02% |
| COC(=O)c1sc2c(c1C)c(=O)n(-c1ccccc1)c(=O)n2CC(=O)Nc1cccc(C)c1 | inactive: -1.95% |
| Cc1nn2c(=O)cc(COC(=O)c3ccccc3NC(=O)c3cccs3)nc2s1 | inactive: -8.3% |
